Assay results as given in PMC1876471.
These are yes or no findings as the source states them, for the method shown. Some results given as binding are weak or reduced against the parent protein; the word gives no strength. For some assays here: Sequences can lack the tags named with a protein.

Amino acid sequences for entries named in this document (tags omitted). Residues count along the entry.
UniProt P11166: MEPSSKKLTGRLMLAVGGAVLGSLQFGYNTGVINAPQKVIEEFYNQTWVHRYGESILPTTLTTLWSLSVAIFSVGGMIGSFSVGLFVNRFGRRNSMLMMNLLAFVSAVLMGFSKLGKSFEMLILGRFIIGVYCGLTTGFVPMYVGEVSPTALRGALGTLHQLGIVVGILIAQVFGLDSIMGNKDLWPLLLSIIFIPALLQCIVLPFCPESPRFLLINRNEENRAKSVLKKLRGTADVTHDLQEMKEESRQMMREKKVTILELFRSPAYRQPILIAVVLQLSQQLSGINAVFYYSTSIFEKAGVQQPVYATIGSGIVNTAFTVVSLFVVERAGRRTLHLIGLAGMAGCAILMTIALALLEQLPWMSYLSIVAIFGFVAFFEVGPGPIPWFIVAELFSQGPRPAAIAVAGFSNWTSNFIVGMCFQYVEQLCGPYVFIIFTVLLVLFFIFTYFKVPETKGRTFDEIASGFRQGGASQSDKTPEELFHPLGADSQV
UniProt P03381, residues 21-215: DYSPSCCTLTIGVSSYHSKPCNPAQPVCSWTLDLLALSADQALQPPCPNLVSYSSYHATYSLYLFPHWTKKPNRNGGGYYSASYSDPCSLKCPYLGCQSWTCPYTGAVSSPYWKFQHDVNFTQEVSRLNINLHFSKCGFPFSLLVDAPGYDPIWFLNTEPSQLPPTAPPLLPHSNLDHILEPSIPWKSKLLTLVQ
UniProt P03383, residues 19-178: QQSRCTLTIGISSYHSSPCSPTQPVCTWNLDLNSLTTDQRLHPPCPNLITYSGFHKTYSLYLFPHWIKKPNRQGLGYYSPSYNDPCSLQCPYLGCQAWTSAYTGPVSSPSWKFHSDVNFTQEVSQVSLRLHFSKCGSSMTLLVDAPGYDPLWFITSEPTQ

What was measured:
[1] = target: Endogenous Glut-1 on human cells (human (endogenous in 293T, Jurkat, erythrocytes, primary T cells)) (UniProt P11166); experiment: flow cytometry on cells; primary human CD4+ and CD8+ T cells, non-activated or stimulated with αCD3/αCD28 mAbs; 30 min at 37°C with rFc-tagged H1RBD (then FITC sheep anti-rabbit IgG, 20 min at 4°C) or H2RBD-EGFP
[2] = target: Endogenous Glut-1 on human cells (human (endogenous in 293T, Jurkat, erythrocytes, primary T cells)) (UniProt P11166); experiment: flow cytometry on cells; endogenous Glut-1 on 293T, Jurkat and primary human erythrocytes; 30 min at 37°C with HRBD-rFc supernatants or H2RBD-EGFP; Jurkat cells also with or without cytochalasin B or cytochalasin D (100 μM, 30 min)
[3] = target: T1, Human Glut-3 glucose transporter, ectopically expressed on transfected 293T cells (human) (UniProt P11169); experiment: flow cytometry on cells; 293T cells transfected with Glut-1 or Glut-3 vectors; cells incubated 30 min at 37°C with undiluted HRBD-rFc supernatants (then FITC anti-rabbit Fc, on ice) or 1:25-1:50 concentrated H2RBD-EGFP
T1 sequence: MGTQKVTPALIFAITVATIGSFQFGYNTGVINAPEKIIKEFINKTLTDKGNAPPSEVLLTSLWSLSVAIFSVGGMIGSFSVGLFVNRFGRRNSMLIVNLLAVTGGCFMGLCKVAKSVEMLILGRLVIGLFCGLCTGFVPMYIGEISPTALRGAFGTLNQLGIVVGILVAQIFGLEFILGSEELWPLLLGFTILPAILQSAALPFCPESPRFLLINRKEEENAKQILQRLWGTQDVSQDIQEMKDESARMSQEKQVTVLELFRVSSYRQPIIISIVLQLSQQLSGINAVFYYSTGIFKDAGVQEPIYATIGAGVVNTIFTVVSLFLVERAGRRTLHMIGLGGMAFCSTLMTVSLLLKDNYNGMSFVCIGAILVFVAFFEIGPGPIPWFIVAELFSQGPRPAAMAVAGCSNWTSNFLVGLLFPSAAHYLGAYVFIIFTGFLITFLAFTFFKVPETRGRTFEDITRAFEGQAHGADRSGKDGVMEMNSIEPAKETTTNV

[4] = target: Human Glut-1 glucose transporter, ectopically expressed on transfected 293T cells (human) (UniProt P11166); experiment: as above

H1RBD (H1_(215)SU subdomain of the HTLV-1 envelope SU, rFc-tagged fusion protein) (from UniProt P03381 21-215) (Fc fusion)
binding [1]: binds | binding [2]: binds | binding [3]: no binding | binding [4]: binds

H2RBD (H2_(178)SU subdomain of the HTLV-2 envelope SU, rFc-tagged fusion protein) (from UniProt P03383 19-178) (Fc fusion)
binding [2]: binds | binding [3]: no binding | binding [4]: binds

H2RBD-EGFP (amino terminal 178 amino acids of the HTLV-2 RBD fused to EGFP) (from UniProt P03383 19-178) (domain or fragment)
binding [1]: binds | binding [2]: binds | binding [3]: no binding | binding [4]: binds
